# Test results: the supplement of paper PMC3334620
# In all, about 33,000 sequences were measured (“E-score (-0.5 to 0.5)”: median about -0.016, highest 2% from about 0.32 on). Some of the results follow.
# Target: T1, Stp1 (UniProt B3LFK1)
# T1 sequence: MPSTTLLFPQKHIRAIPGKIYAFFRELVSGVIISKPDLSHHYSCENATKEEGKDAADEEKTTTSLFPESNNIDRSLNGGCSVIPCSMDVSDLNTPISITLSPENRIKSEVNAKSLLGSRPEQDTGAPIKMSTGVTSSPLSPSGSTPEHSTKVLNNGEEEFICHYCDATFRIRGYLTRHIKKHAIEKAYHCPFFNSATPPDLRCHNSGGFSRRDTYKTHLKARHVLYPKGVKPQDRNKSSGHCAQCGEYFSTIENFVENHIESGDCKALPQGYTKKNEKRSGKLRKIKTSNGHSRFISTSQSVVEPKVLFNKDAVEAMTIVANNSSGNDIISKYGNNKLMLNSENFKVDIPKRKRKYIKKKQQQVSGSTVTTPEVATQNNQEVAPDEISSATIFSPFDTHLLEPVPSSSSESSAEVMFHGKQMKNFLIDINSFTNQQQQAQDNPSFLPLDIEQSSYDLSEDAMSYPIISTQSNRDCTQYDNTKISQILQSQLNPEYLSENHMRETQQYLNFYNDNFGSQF
# Test: PBM E-score (8-mer binding enrichment) (E-score (-0.5 to 0.5)); higher = stronger / more preferred TF binding; most listed sequences are background and not binding sites
# Conditions: protein concentration: 200 nM; construct: GST-full length
# Method in brief: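 Masliner-normalised scans of fluorescent anti-GST signal were the basis for scoring. That signal came from GST-tagged yeast transcription factors applied at about 100-200 nM to double-stranded universal all-10-mer Agilent arrays on fresh or once-stripped slides. Each ungapped eight-base word, pooled with its reverse complement, received an E-score from the Universal PBM Analysis Suite.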
row,Sequence,PBM E-score
1,CGCCGACG,0.14
2,CATCGATA,0.126
3,ACGACTAT,-0.0291
4,CTCATCCC,-0.211
5,GGCGGGAA,0.0584
6,ACCGCCCT,-0.14
7,CAGATTGC,0.057
8,AGGGATCG,-0.186
9,CAAGGCCA,0.144
10,CGTGAGGC,0.305
11,CACCTCAG,-0.149
12,ACGACTAA,-0.112
13,CTAAACAC,0.0437
14,GCCAGCAA,-0.114
15,CCCGTTGA,-0.0684
16,GGCGGACC,-0.188
17,TGGATACA,-0.0451
18,CATCGGGC,-0.221
19,AAAGTAAG,-0.0278
20,CCATTCGC,-0.0541
21,TGTCGTAA,-0.0876
22,CAGAGGAA,-0.131
23,CCCGTGTC,0.187
24,CGAAAAGC,0.0076
25,ATTTAGTC,0.17

row,Sequence,PBM E-score
1,GCCAACTA,0.0365
2,GCTGGTCC,-0.253
3,AATATGTC,0.153
4,ACTTGTAA,-0.0058
5,AAATAAGC,0.0106
6,CGCGAGGA,-0.0281
7,GGCTTTTA,0.0406
8,ATCGTAAC,0.177
9,ACGGTGGG,-0.148
10,CGGTACCG,0.0142
11,GATTCCGC,0.0804
12,TCTAGGCA,-0.111
13,CTGTCTAA,0.114
14,CACGGTCG,-0.0893
15,TCCAAGCA,0.0574
16,GAGCAGAC,-0.159
17,CACGCGAG,0.189
18,AGTAAAGG,0.154
19,AGAGGTGG,-0.0773
20,ACTAGGCC,-0.35
21,TGACAACA,0.148
22,GTTAGATA,0.102
23,CCGTAAGG,0.0886
24,ACTCGCAT,-0.0215
25,CTTGGGGA,-0.0776

row,Sequence,PBM E-score
1,CACATGCC,0.0814
2,AAAGACCA,-0.156
3,CTTGCCAA,-0.21
4,TTCAGGAA,-0.0113
5,CACCTCAA,0.0958
6,CCCTAGGG,-0.141
7,ATGACATC,-0.0108
8,AATAATCT,0.0183
9,ATTAGGCG,0.198
10,TGACCAAA,-0.0564
11,ATGAACGA,0.092
12,ACTGAATG,0.0483
13,CGCCTACG,0.147
14,GGAACCTA,-0.209
15,AATATCTA,0.0318
16,ATTAAACA,0.0904
17,GAACCTCC,-0.266
18,CAGCTCCC,-0.246
19,GGTGACGA,-0.138
20,TGATGTAA,0.0511
21,ACCTTGAT,-0.00231
22,GTGGTTCA,0.112
23,TCAACCAA,-0.116
24,AATGAGAC,-0.199
25,CGGGCATA,-0.155

row,Sequence,PBM E-score
1,AAGCTGCG,-0.105
2,CACTACAC,-0.0919
3,TAACCGGA,-0.155
4,CTTTGGCC,-0.0858
5,CGTTTGGA,0.0802
6,AATGCTTC,0.0234
7,AGTACCAG,-0.0834
8,AGTCTGTG,-0.0713
9,GGACGTGA,-0.216
10,ACCTCTGC,-0.064
11,AATCAGTA,0.163
12,GCGATGTA,0.16
13,ATTACGTA,0.212
14,AGCTCGGG,-0.225
15,GTTAGAAC,0.0365
16,GAGTAAAC,-0.0658
17,ATTATGCG,0.188
18,ATAGGATC,-0.00209
19,TGATATCA,-0.0775
20,CTATCACA,-0.0263
21,GCTTACCA,0.198
22,ACTGTGAG,-0.0463
23,ACCTACTA,-0.1
24,TTACCGAA,0.187
25,CTTTTTTA,0.226

row,Sequence,PBM E-score
1,CAACATAG,-0.0244
2,AGCATTCC,-0.0592
3,CAAACCTA,-0.0113
4,CTCAAATC,-0.18
5,CCACGGCC,0.185
6,AACCAAAG,0.0816
7,GCGTCTCA,0.128
8,AACAGGGC,0.192
9,ACCGCCCA,-0.253
10,AAGAGACA,-0.0418
11,AATGTGGG,-0.108
12,ACTGGCCC,-0.109
13,CCAGGGGG,-0.224
14,CCGGGGTA,-0.288
15,GCGAACAA,0.176
16,AAAAATCC,0.0149
17,AAAGAAAC,0.155
18,ATTCTGGC,0.00506
19,GATCCAGC,0.0072
20,CGGGGAAG,-0.0704
21,AGCTATAA,-0.0475
22,CCACGTAC,-0.17
23,CAGCGAGA,-0.209
24,ACGTGAAG,-0.0283
25,ATGAGCAC,-0.132

row,Sequence,PBM E-score
1,AACCTATT,-0.124
2,AGGGAACG,-0.12
3,ACTGATTG,-0.0948
4,CCCTAAGA,-0.128
5,CTAAAGAC,0.0476
6,CCAAGACC,-0.284
7,CTTTTTCA,0.0193
8,ATCGTTCA,0.0174
9,AGATATAA,0.206
10,GCTAGGGA,-0.271
11,GGCCTAAC,-0.145
12,CAACTGCC,0.123
13,CCATGATC,-0.171
14,ATCCACCC,-0.254
15,TCAGTGAA,-0.0946
16,ACCTGGCG,-0.159
17,CTTGCCGC,0.309
18,CTATTCGA,-0.092
19,AGATGCAC,-0.129
20,CAAAGTCA,-0.0611
21,AAAAATGC,0.22
22,GAATTCAA,0.143
23,GGCATCCA,-0.204
24,CCGAGGTA,-0.195
25,GGTTAGCA,-0.193

row,Sequence,PBM E-score
1,GAAGCTTC,-0.321
2,CGACCCAC,-0.181
3,AGGAAGCC,-0.068
4,AATCTTCA,0.192
5,AGGAGATC,-0.165
6,AGCCTTAA,0.0554
7,AAGGGTAC,-0.0549
8,AACAAGTG,-0.0488
9,GTGGAGCA,-0.152
10,AAGCATTG,-0.0121
11,GAACGGAC,-0.0635
12,TATTTGCA,0.156
13,TGTCCACA,-0.0307
14,AAGTATTG,-0.0369
15,CCCAGTTC,-0.149
16,GGAGCCGA,-0.0393
17,GTGTTTGA,0.133
18,ACACTGAT,-0.14
19,GCTCCGAA,-0.0216
20,AGTATTCC,0.00904
21,CAGCACTA,-0.0254
22,CCAGTACC,-0.272
23,GAGTAGTA,0.0408
24,CCTACCCG,-0.0325
25,CACATAGC,-0.0397

row,Sequence,PBM E-score
1,AGCCGGGG,-0.354
2,ACTATTTA,0.0337
3,ATGGCGCA,0.0846
4,CGATCGAA,0.15
5,AATCCGCG,0.111
6,GCCGAACC,0.166
7,AACAATTA,0.103
8,GGTGGGAC,-0.382
9,AATTCTGT,-0.021
10,AACTATCC,-0.224
11,CATCTGAC,-0.262
12,CTACTTAC,0.0984
13,CAATGGCA,0.166
14,AGCTATGC,-0.096
15,CGTTACAC,0.2
16,CTACGCAC,-0.0526
17,ATTACACC,-0.0688
18,CCCTTGGA,-0.0741
19,CCAGCGTA,-0.0807
20,GGTGTCCA,-0.147
21,ACTGAAAG,0.14
22,GCGTTTCA,0.195
23,CTGTTCCC,-0.15
24,CGGGGATC,-0.219
25,GAAATCAC,0.187

row,Sequence,PBM E-score
1,AAAATTCT,0.0641
2,AGTCGCCG,0.369
3,AAGTTGTC,0.0392
4,CAGCTCGA,-0.163
5,GGTAACAA,0.171
6,CATACTAC,0.0425
7,AGAAACGG,0.278
8,GCTGATTA,0.143
9,GACGCGTA,0.0229
10,AGTACACG,0.131
11,AACCACGT,-0.0804
12,ACTCCTGA,0.0315
13,CCAGTTGA,0.0606
14,GAGAAAGC,0.114
15,GATAGATC,-0.135
16,CACTCGGA,0.0142
17,ACCCCGCT,-0.174
18,TACCTGCA,-0.0603
19,ATGTCCCA,-0.161
